According to PMC9911399, “Two distinct binding modes provide the RNA-binding protein RbFox with extraordinary sequence specificity”:
Substitutions are numbered along the chain they refer to; changes in the protein carry UniProt numbers. Some of the results follow.

T1: RBFOX1 RRM RbFoxmut (Fox-RRM*) (Homo sapiens, UniProt Q9NWB1 109-208, R118D;E147R;N151S;E152T)
T1 sequence: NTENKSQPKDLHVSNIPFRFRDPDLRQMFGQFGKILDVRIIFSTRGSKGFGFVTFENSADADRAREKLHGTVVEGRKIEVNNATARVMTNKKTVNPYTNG

B1: UUAGAGC (DNA:RNA)
RNA: GGGAGACCGGAAUUCAGAUUGUCCUUAGAGCUUAAAUCCCGUCGUAGCCACCA
DNA 1: CAATCTGAATTCCGGTCTCCC
DNA 2: TGGTGGCTACGACGGGATT
B2: AACGUAG (DNA:RNA)
RNA: B1 RNA with U25A, U26A, A27C, A29U, G30A, C31G
DNA 1: CAATCTGAATTCCGGTCTCCC
DNA 2: TGGTGGCTACGACGGGATT
B3: UAAAGUC (DNA:RNA)
RNA: B1 RNA with U26A, G28A, A29G, G30U
DNA 1: CAATCTGAATTCCGGTCTCCC
DNA 2: TGGTGGCTACGACGGGATT
B4: UUGACAU (DNA:RNA)
RNA: B1 RNA with A27G, G28A, A29C, G30A, C31U
DNA 1: CAATCTGAATTCCGGTCTCCC
DNA 2: TGGTGGCTACGACGGGATT
B5: GCGCGAA (DNA:RNA)
RNA: GGGAGACCGGAAUUCAGAUUGUCCGCGCGAAUUAAAUCCCGUCGUAGCCACCA
DNA 1: CAATCTGAATTCCGGTCTCCC
DNA 2: TGGTGGCTACGACGGGATT
B6: CUAUCGA (DNA:RNA)
RNA: B1 RNA with U25C, G28U, A29C, C31A
DNA 1: CAATCTGAATTCCGGTCTCCC
DNA 2: TGGTGGCTACGACGGGATT
B7: UGACUAC (DNA:RNA)
RNA: B1 RNA with U26G, G28C, A29U, G30A
DNA 1: CAATCTGAATTCCGGTCTCCC
DNA 2: TGGTGGCTACGACGGGATT
B8: AUCGGAU (DNA:RNA)
RNA: B5 RNA with G25A, C26U, G27C, C28G, A31U
DNA 1: CAATCTGAATTCCGGTCTCCC
DNA 2: TGGTGGCTACGACGGGATT
B9: UAAACCG (DNA:RNA)
RNA: B1 RNA with U26A, G28A, A29C, G30C, C31G
DNA 1: CAATCTGAATTCCGGTCTCCC
DNA 2: TGGTGGCTACGACGGGATT
B10: AUGUACA (DNA:RNA)
RNA: B5 RNA with G25A, C26U, C28U, G29A, A30C
DNA 1: CAATCTGAATTCCGGTCTCCC
DNA 2: TGGTGGCTACGACGGGATT
B11: GCGCCCA (DNA:RNA)
RNA: B5 RNA with G29C, A30C
DNA 1: CAATCTGAATTCCGGTCTCCC
DNA 2: TGGTGGCTACGACGGGATT
B12: GCAACAG (DNA:RNA)
RNA: B5 RNA with G27A, C28A, G29C, A31G
DNA 1: CAATCTGAATTCCGGTCTCCC
DNA 2: TGGTGGCTACGACGGGATT
B13: GAUUUGC (DNA:RNA)
RNA: B1 RNA with U25G, U26A, A27U, G28U, A29U
DNA 1: CAATCTGAATTCCGGTCTCCC
DNA 2: TGGTGGCTACGACGGGATT
B14: CGUCCUC (DNA:RNA)
RNA: B5 RNA with G25C, C26G, G27U, G29C, A30U, A31C
DNA 1: CAATCTGAATTCCGGTCTCCC
DNA 2: TGGTGGCTACGACGGGATT
B15: CCUAACU (DNA:RNA)
RNA: B5 RNA with G25C, G27U, C28A, G29A, A30C, A31U
DNA 1: CAATCTGAATTCCGGTCTCCC
DNA 2: TGGTGGCTACGACGGGATT
B16: ACCGCUA (DNA:RNA)
RNA: B5 RNA with G25A, G27C, C28G, G29C, A30U
DNA 1: CAATCTGAATTCCGGTCTCCC
DNA 2: TGGTGGCTACGACGGGATT
B17: UUAUGUA (DNA:RNA)
RNA: B1 RNA with G28U, A29G, G30U, C31A
DNA 1: CAATCTGAATTCCGGTCTCCC
DNA 2: TGGTGGCTACGACGGGATT
B18: AAGCCCU (DNA:RNA)
RNA: B5 RNA with G25A, C26A, G29C, A30C, A31U
DNA 1: CAATCTGAATTCCGGTCTCCC
DNA 2: TGGTGGCTACGACGGGATT
B19: GUGAAAU (DNA:RNA)
RNA: B5 RNA with C26U, C28A, G29A, A31U
DNA 1: CAATCTGAATTCCGGTCTCCC
DNA 2: TGGTGGCTACGACGGGATT
B20: GGUGAUG (DNA:RNA)
RNA: B1 RNA with U25G, U26G, A27U, G30U, C31G
DNA 1: CAATCTGAATTCCGGTCTCCC
DNA 2: TGGTGGCTACGACGGGATT

Molecular target: T1, RBFOX1 RRM RbFoxmut (Fox-RRM*)
Experiment: EMSA; HiTS-Eq, 1 nM pool, 10 min; buffer printed only for the single-RNA assays: 10 mM Tris pH 7.5, 150 mM NaCl, 3.4 mM EDTA, 0.001% NP-40, 30 C
Settings: tags: His6 N-terminal (pET28a); label: 5' 32P
Procedure, shortened: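 A pool of RNA with 7 randomized nucleotides, 5′-radiolabelled and with DNA-annealed flanks, was equilibrated at 1 nM for 10 min in 50 µL with purified RbFox RRM, wild type or mutant, across increasing protein concentrations. Free RNA was separated by 8% native PAGE, excised, reverse-transcribed, barcoded by PCR and sequenced. Relative association constants were obtained from read-count changes of each RNA species versus the control reaction and normalised to the cognate motif.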

Binder	binding signal
B1	0.0822 KA relative to UGCAUGU
B2	0.0975 KA relative to UGCAUGU
B3	0.0419 KA relative to UGCAUGU
B4	0.0616 KA relative to UGCAUGU
B5	0.104 KA relative to UGCAUGU
B6	0.0597 KA relative to UGCAUGU
B7	0.0857 KA relative to UGCAUGU
B8	0.0956 KA relative to UGCAUGU
B9	0.0862 KA relative to UGCAUGU
B10	0.124 KA relative to UGCAUGU
B11	0.0736 KA relative to UGCAUGU
B12	0.0871 KA relative to UGCAUGU
B13	0.0946 KA relative to UGCAUGU
B14	0.0728 KA relative to UGCAUGU
B15	0.0895 KA relative to UGCAUGU
B16	0.0962 KA relative to UGCAUGU
B17	0.19 KA relative to UGCAUGU
B18	0.0868 KA relative to UGCAUGU
B19	0.086 KA relative to UGCAUGU
B20	0.412 KA relative to UGCAUGU
